In patent US9345663B2 (priority 2000, dated 2016):

How the values were obtained:
[1] = Osmolality and pH of the aerosol formulation; assay type: physicochemical
[2] = in vivo

**Q.** For `C[C@H]1[C@H](NC(=O)/C(=N\OC(C)(C)C(=O)O)c2csc(N)n2)C(=O)N1S(=O)(=O)O.NCCCC[C@H](N)C(=O)O` [aztreonam lysinate], which “pH of the solution” value ([1]; 75 mg aztreonam and 47 mg lysine reconstituted with 1 mL 0.17% NaCl) is on record?
**A.** Its value is 4.2-7.0.

**Q.** And the osmolality ([1]; about 50 mg per 1 mL of 0.2 NS)?
**A.** The osmolality was “about 290 mOsm/l”.

**Q.** And the tolerability of aerosol [2]?
**A.** The tolerability of aerosol was “well tolerated and safe”.
